Results on 44 compounds are retold here after publication PMC4336329 (PLoS ONE, 2015).

SMILES strings stand for the structures. The whole screen tested about 310,000 compounds, of which about 14,000 (4.5%) showed an effect of 50% or more. Effects have a minus sign here. This is one part of the list.
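Further: peak tail current of the secondary pulse compared with the same well before compound.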

For this assay, the target named is human ether-à-go-go-related gene (hERG) potassium channel (human, UniProt Q12809). Briefly: primary screen, population patch clamp on CHO cells stably expressing hERG.
human ether-à-go-go-related gene (hERG) potassium channel, sequence (Q12809 whole entry, looked up): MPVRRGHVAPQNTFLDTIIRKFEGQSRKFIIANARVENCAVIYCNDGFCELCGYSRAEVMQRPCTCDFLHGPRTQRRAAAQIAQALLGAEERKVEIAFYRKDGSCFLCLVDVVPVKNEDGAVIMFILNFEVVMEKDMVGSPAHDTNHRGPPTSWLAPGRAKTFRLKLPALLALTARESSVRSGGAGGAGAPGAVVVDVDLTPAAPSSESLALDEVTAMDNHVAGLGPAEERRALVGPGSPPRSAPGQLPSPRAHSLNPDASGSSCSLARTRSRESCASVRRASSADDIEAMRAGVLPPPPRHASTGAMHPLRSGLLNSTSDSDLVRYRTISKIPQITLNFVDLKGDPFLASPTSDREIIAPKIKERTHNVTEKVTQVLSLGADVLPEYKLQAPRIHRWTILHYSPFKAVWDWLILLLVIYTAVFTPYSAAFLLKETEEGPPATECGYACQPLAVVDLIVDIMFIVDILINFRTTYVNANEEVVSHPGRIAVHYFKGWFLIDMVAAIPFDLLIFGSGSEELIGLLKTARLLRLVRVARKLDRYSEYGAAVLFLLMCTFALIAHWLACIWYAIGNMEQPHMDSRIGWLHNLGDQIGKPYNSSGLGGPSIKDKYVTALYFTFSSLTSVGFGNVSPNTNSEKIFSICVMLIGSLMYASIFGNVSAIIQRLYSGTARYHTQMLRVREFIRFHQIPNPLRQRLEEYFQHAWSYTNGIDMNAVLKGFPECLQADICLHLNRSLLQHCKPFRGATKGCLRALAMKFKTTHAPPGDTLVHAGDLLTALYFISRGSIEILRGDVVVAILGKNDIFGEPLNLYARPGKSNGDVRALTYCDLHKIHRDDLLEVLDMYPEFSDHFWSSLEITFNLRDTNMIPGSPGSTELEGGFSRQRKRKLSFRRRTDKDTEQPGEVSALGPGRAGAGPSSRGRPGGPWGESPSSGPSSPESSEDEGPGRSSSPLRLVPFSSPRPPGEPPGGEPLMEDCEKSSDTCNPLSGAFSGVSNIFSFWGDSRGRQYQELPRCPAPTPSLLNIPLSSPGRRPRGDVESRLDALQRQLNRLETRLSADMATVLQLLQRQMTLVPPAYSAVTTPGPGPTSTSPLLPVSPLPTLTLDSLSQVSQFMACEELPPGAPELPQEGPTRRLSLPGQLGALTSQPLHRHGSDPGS
Take `O=C(c1cccc(Cl)c1)N1CCC(=O)N(C(COCc2ccccc2)Cc2ccccc2)CC1` (centres unmarked): the “hERG current change (%, negative = inhibition) at 10uM” value is recorded as -51.9%. As for `COc1cccc(C2C(C(N)=O)=C(C)Nc3nc(-c4cccc(Cl)c4)nn32)c1` (centres unmarked), the figure is -20.2%; as for `CSc1ccccc1C(=O)C1CCCN(Cc2ccn[nH]2)C1` (centres unmarked), -8.34%; as for `CCC(=O)Nc1ccc(C(=O)NNC(=O)C2CCCCC2)cc1`, 2.13%.

In the case of `CCN(CCO)Cc1csc2ccc(Cl)cc12.Cl`, the “hERG current change (%, negative = inhibition) at 10uM” value is -4.52%. For the compound `Cc1nn(Cc2ccc(Cl)cc2Cl)c(Cl)c1/C=N/NC(=O)CNc1cccc(C(F)(F)F)c1`, the “hERG current change (%, negative = inhibition) at 10uM” value is 9.72%. As for `Cc1c(C(=O)Oc2ccc(-c3cnc4ccccc4n3)cc2)cccc1[N+](=O)[O-]`, the figure is 18.2%; as for `COC(=O)C1=C(O)C(C(=O)OC)C(c2ccc(C)cc2)C(C#N)(C#N)C1c1ccc(C)cc1` (centres unmarked), 1.83%; as for `O=C(CN1CCN(c2ccc(F)cc2)CC1)N1N=CCC1c1ccccc1` (centres unmarked), -13.3%. Consider `O=C(NC1=NCCS1)c1ccccc1OCc1ccc(F)cc1`, for which the “hERG current change (%, negative = inhibition) at 10uM” value turned out to be 17.3%. For the compound `CCOC(=O)C1CCCN(C(=O)c2cc(S(=O)(=O)Nc3ccccc3OC)ccc2C)C1` (centres unmarked), the “hERG current change (%, negative = inhibition) at 10uM” value is -13.9%. For `CCc1ccc(NC(=O)c2[nH]c(C)c(C(C)=O)c2C)cc1`, the “hERG current change (%, negative = inhibition) at 10uM” value is on record as -1.42%. Regarding `Cc1ccc(NC(=S)N2CCN(Cc3ccccc3)CC2)cc1`, the “hERG current change (%, negative = inhibition) at 10uM” value is reported as 15.6%. For `Cc1ccc(NC(=O)c2ccc(-n3cncn3)c([N+](=O)[O-])c2)cc1`, the “hERG current change (%, negative = inhibition) at 10uM” value is -17.9%. Regarding `CN(c1ccc(C(=O)NCCCn2ccnc2)cc1)S(C)(=O)=O`, the “hERG current change (%, negative = inhibition) at 10uM” value is given as 6.71%. As to `FC(F)(F)c1ccccc1-n1c(CN2CCCCC2)n[nH]c1=S`, the “hERG current change (%, negative = inhibition) at 10uM” value is reported as -27.4%. For the compound `Cc1ccccc1-n1nnnc1SCC(=O)N(C)C1CCS(=O)(=O)C1` (centres unmarked), the “hERG current change (%, negative = inhibition) at 10uM” value was 16.4%. Regarding `CCOc1ccc(NC2=NCC(=O)N2Cc2cccs2)cc1.Cl`, the “hERG current change (%, negative = inhibition) at 10uM” value is recorded as -1.9%.

Regarding `O=C(N/N=C/c1cc(Cl)ccc1O)C(=O)Nc1ccccc1OC(F)(F)C(F)F`, the “hERG current change (%, negative = inhibition) at 10uM” value turned out to be 12%.

Consider `O=C(Nc1cc(Cl)ccc1-n1cncn1)c1cc(F)cc(F)c1`, for which the “hERG current change (%, negative = inhibition) at 10uM” value was -10.4%.

For the compound `Cn1cccc1-c1cc(C(=O)N/N=C/c2cccc(O)c2)[nH]n1`, the “hERG current change (%, negative = inhibition) at 10uM” value was -7.31%. Turning to `O=C(CSCc1ccc(Cl)cc1)N1CCN(Cc2ccc3c(c2)OCO3)CC1`, the “hERG current change (%, negative = inhibition) at 10uM” value is recorded as -48.2%. Take `Cc1ccc(NC2=C/C(=N/S(=O)(=O)c3cccs3)c3ccccc3C2=O)cc1`: the “hERG current change (%, negative = inhibition) at 10uM” value is recorded as 4.44%. On to `Cc1cc(C)nc(N(C#N)C(C)C(=O)N(C)C)n1` (centres unmarked), for which the “hERG current change (%, negative = inhibition) at 10uM” value came out at 4.74%. With `COCCCNC(=S)N1CCN(C)CC1`, the “hERG current change (%, negative = inhibition) at 10uM” value was -28.4%. As for `COc1ccc(C2C3=C(CCCC3=O)Nc3nc(SCc4ccc(C(=O)O)cc4)nn32)cc1OC` (centres unmarked), the figure is -3.79%; as for `COc1ccc(C(CNC(=O)c2ccc(C)o2)N2CCOCC2)cc1` (centres unmarked), -5.54%. Take `COc1cccc(CNC(=O)COC(=O)c2cc([N+](=O)[O-])ccc2N2CCCC2)c1`: the “hERG current change (%, negative = inhibition) at 10uM” value was -56.9%. `O=C(Cc1ccc(F)cc1)N1CCN(c2ccc([N+](=O)[O-])cc2)CC1`: the “hERG current change (%, negative = inhibition) at 10uM” value is reported as -69.5%. As for `Cc1c(CCOC(=O)C2C3CC4CC(C3)CC2C4)sc[n+]1CC(=O)c1ccc(Br)cc1.[Br-]` (centres unmarked), the figure is -31.4%. Take `COCCCNC(=S)N/N=C/c1ccc2c(c1)OCO2`: the “hERG current change (%, negative = inhibition) at 10uM” value was determined as 4.04%. Consider `Cc1cc(C)n2nc(/C(C#N)=C/c3ccccn3)c(C#N)c2n1`, for which the “hERG current change (%, negative = inhibition) at 10uM” value stood at 29%. On to `Cc1cc(NS(=O)(=O)c2ccc(NC(=O)c3ccc(Br)o3)cc2)nc(C)n1`, for which the “hERG current change (%, negative = inhibition) at 10uM” value was determined as 19.9%. On to `CCn1c(Cn2nnc(-c3ccccc3)n2)nnc1SCC(=O)Nc1ccc(N(C)C)cc1`, for which the “hERG current change (%, negative = inhibition) at 10uM” value is on record as 19.1%. In the case of `O=C(Nc1c(C(=O)N2CCCCC2)cnn1-c1ccccc1)c1ccccc1F`, the “hERG current change (%, negative = inhibition) at 10uM” value came to 19%. As for `COc1cc2c(cc1OC)-c1nnnn1C(C)(C)C2`, the figure is 3.44%.

`Cc1cc(NC(=O)c2cc(-c3ccccn3)nc3ccc(Br)cc23)no1`: the “hERG current change (%, negative = inhibition) at 10uM” value came to 24.9%.

Consider `Cc1c(OCC(=O)C(C)(C)C)ccc2c3c(c(=O)oc12)CCCC3`, for which the “hERG current change (%, negative = inhibition) at 10uM” value is 13.8%. On to `Cc1ccccc1NC(=O)Cn1cccc1`, for which the “hERG current change (%, negative = inhibition) at 10uM” value amounted to 7.2%. As for `O=C(CNC(=O)c1ccc(Br)o1)NNC(=O)c1ccccc1O`, the figure is -2.55%; as for `O=C(c1ccco1)N1CCN(C(=O)N2c3ccccc3Sc3ccccc32)CC1`, -16.4%. As for `CCCCS(=O)(=O)/C=C\C1C2C=CC(C2)C1S(=O)(=O)CCCC` (centres unmarked), the figure is -14.5%; as for `CC1CCc2nc(NC(=O)C3CCCO3)sc2C1` (centres unmarked), -3.97%; as for `O=C1OCCC1Sc1nnc(-c2ccco2)n1-c1ccccc1` (centres unmarked), 15.8%.
